In PMC4336329 (PLoS ONE, 2015):
The campaign covered roughly 310,000 compounds. About 14,000 (4.5%) showed an effect of 50% or more. Effects have a minus sign here. This is one part of the list.

Biological target: human ether-à-go-go-related gene (hERG) potassium channel (human, UniProt Q12809)
Experiment: primary screen, population patch clamp on CHO cells stably expressing hERG
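Also: peak tail current of the secondary pulse compared with the same well before compound.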

Sequence of human ether-à-go-go-related gene (hERG) potassium channel (Q12809 whole entry, looked up): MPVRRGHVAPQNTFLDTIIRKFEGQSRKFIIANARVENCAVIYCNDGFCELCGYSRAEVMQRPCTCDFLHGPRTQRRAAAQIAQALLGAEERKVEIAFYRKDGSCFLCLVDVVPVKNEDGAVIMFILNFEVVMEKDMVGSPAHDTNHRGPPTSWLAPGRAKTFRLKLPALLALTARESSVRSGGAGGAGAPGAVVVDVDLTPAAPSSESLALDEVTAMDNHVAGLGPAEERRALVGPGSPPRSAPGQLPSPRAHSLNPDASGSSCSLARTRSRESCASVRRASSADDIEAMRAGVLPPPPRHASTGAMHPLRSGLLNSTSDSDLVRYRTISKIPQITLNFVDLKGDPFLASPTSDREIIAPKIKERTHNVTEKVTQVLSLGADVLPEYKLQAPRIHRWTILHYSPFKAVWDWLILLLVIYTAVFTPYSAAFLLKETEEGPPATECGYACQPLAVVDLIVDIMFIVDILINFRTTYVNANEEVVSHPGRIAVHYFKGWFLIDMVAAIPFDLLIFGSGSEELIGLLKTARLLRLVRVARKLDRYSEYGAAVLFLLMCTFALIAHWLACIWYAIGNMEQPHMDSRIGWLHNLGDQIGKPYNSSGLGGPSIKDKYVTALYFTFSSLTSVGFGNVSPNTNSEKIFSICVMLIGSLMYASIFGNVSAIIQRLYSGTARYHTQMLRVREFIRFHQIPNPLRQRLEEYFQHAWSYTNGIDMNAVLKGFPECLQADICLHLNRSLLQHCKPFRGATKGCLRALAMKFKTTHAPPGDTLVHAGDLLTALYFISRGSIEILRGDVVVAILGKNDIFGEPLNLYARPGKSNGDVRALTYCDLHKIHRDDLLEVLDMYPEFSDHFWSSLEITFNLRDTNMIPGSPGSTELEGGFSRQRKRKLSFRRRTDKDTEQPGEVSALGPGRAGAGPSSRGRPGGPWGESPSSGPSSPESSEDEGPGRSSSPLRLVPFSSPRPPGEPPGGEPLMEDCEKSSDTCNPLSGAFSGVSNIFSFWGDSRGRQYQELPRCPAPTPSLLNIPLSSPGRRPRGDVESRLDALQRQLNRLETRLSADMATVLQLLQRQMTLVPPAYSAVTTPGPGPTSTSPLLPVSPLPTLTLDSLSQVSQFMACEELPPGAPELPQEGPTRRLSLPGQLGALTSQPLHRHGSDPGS

Compound	hERG current change (%, negative = inhibition) at 10uM [%]
CCc1c(O)nc2sc3ccccc3n2c1=O	-0.902
CS(=O)(=O)Nc1ccccc1C(=O)NCCSCc1ccccc1	-1.17
Cl.c1ccc2c(c1)CNC1(CCCCC1)C2	-2.11
CC(C)Cc1nnc(NC(=O)CCC(=O)Nc2ccccc2)s1	2.36
CC(=O)Nc1cccc(C(=O)OCC(=O)NC(=O)c2ccccc2)c1	-2.01
COc1ccccc1CNC(=O)COC(=O)C1CC1	3.35
N#CC(C#N)=Cc1cccn1-c1ccc(C(=O)O)cc1	15.5
CCOC(=O)N1CCC(NC(=O)c2cc(C(=O)Nc3ccc(S(=O)(=O)N4CCCCC4)cc3)ccc2CO)CC1	34.2
CCc1cc(=O)oc2cc(C)cc(OC(C)C(=O)NCc3ccccn3)c12 (centres unmarked)	-12.2
O=C(N/N=C/CCc1ccccc1)c1ccc(CN2c3cccc4cccc(c34)S2(=O)=O)cc1	-10.3
CCCc1oc(C(=O)O)cc1CN1CCOCC1.Cl	8.54
O=c1c2sccc2nc(SCc2cc(=O)n3ccccc3n2)n1-c1ccc(Br)cc1	-32
Cl.OC(CNCc1cccc(Cl)c1)c1ccccc1 (centres unmarked)	-2.32
N/C(CN1CCCC1=O)=N\OC(=O)c1ccc(Cl)cc1	-5.46
COc1ccccc1C(=O)N1CCN(c2cccc(C(F)(F)F)c2)CC1	-14
O=C(Nc1ccc(Br)c(Br)c1)C1CCCO1 (centres unmarked)	3.39
NC(=O)NO	-3.92
COC(=O)C1=C(c2ccc(-c3ccccc3)c(F)c2)C[C@@H]2CC[C@H]1N2C(=O)N1CCCCC1	31.3
Cc1c(C(=O)OCCOC(C)C)[nH]c2c1C(=O)CC(C)(C)C2	-4.9
CN(Cc1cccc(F)c1)C(=O)c1ccc(S(=O)(=O)C(F)F)cc1	-34.2
CC1CCN(S(=O)(=O)c2ccccc2[N+](=O)[O-])CC1	-11.4
CCOc1ccc(CNC2CCCc3ccccc32)cc1.O=C(O)C(=O)O (centres unmarked)	-68.1

Compound	hERG current change (%, negative = inhibition) at 10uM [%]
O=C(NNC(=O)c1cc(OCC(F)(F)F)ccc1OCC(F)(F)F)c1cccc(C(F)(F)F)c1	-17.4
Cn1cc(C(=O)Cc2ccccc2)c2ccccc21	-6.56
COc1ccccc1NC(=O)CSc1nnc(-c2ccc(C)cc2)o1	0.209
Cc1ccc(Cn2cccc(NC(=O)c3ccco3)c2=O)cc1	0.595
CC1CCc2c(sc3nc4n(c(=O)c23)CCS4)C1 (centres unmarked)	-10.3
CN1CCN(C(=O)c2cc(COc3ccccc3)on2)[C@@H](c2ccccc2)C1	-8.4
CC1(O)C[C@]2(C)N(O)C3CCCC[C@@H]3N2O1 (some centres unmarked)	6.2
O=c1[nH]snc1-c1c(Cl)cccc1Cl	20
COc1ccc(CNC(=O)COC(=O)/C=C/c2ccco2)cc1	-10.5
c1cn(CC2(Cn3ccnc3)COC2)cn1	2.07
CCN(CC)S(=O)(=O)c1cc(NC(=O)Cc2ccsc2)ccc1C	-14
CC(C)[C@H]1C(=O)N2CCC[C@H]2[C@]2(O)O[C@](NC(=O)[C@@H]3C=C4c5cccc6[nH]cc(c56)C[C@H]4N(C)C3)(C(C)C)C(=O)N12	-22.7
COC(=O)c1ccc(NC(=O)CC2C(=O)N(c3ccc(C)cc3)C(=O)N2CC(C)C)cc1 (centres unmarked)	-21.1
CC(c1ccc(F)cc1)n1c(-c2ccc3ccccc3n2)n[nH]c1=S (centres unmarked)	18.1
COc1cccc([C@@H]2CC=C(C(=O)O)[C@H](c3ccc(F)cc3)N2S(=O)(=O)c2ccc(C)cc2)c1	22.1
c1cn(CCCNC2CCCCCCC2)cn1	8.98
COc1ccc2c(c1)c(=O)oc1cc(O)ccc12	3.99
Cc1cccc(N2CCN(S(=O)(=O)c3c(C)noc3/C=C/N(C)C)CC2)c1C	5.94
CNCCCC1c2ccccc2C=Cc2ccccc21.Cl	13.2
COc1ccc(CCNC(=O)CCS(=O)(=O)c2ccc3c(c2)NC(=O)C(C)S3)cc1OC (centres unmarked)	11.4
Fc1ccccc1-c1nc(-c2cnccc2C(F)(F)F)no1	10.1
OC(CNCc1ccccc1Cl)C(F)(F)F (centres unmarked)	12.2
